Assay results as given in the supplement of paper PMC3334620.
Whole data set: some 33,000 sequences, median “E-score (-0.5 to 0.5)” near -0.04, cut for the highest 2% near 0.36. The list shows a part of the results.

Each sequence was assayed against T1, Hmlalpha2 (UniProt P0CY09) (assay: PBM E-score (8-mer binding enrichment) (E-score (-0.5 to 0.5)); higher = stronger / more preferred TF binding; most listed sequences are background and not binding sites). Conditions: protein concentration: 200 nM; construct: GST-full length.
T1 sequence: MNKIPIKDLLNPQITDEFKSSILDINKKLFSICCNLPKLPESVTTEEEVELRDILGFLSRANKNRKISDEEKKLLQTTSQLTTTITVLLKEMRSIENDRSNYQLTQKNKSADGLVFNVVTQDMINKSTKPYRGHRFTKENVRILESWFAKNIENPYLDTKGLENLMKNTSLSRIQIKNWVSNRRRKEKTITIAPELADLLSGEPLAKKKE
Procedure: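 Universal 'all 10-mer' protein binding microarrays (Agilent AMADID 015681) probed with GST-tagged S. cerevisiae TFs (full-length or DBD) made by in vitro transcription/translation (PURExpress), about 100-200 nM. Bound TF was detected with fluorescent anti-GST. Each ungapped 8-mer (which stands for itself and its reverse complement) is scored by the PBM enrichment score (E-score), a modified Wilcoxon-Mann-Whitney statistic from -0.5 to +0.5, computed with the Universal PBM Analysis Suite. Scale: above 0.35 generally sequence-specific binding.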

Sequence | PBM E-score
CAACACAA | 0.35
GAACATGC | 0.272
AATTCAAT | 0.2
ATCAGCAC | -0.0565
AGCGATCG | -0.035
CAATCGCC | -0.118
AGTCGAAC | -0.107
ACGAAATC | 0.0388
GCCGCCAA | -0.118
GGGCGTCA | -0.318
GATTTCAC | 0.145
CGCAAATA | 0.109
CCCTCACC | -0.363
ATTGCCCG | -0.263
ATTCTTGA | 0.0153
TATTGAAA | 0.17
GCTGATCA | -0.094
CATGGCAG | 0.0777
AGCGCTGA | -0.063
CCGAGCCG | -0.161
ATCAACCA | -0.0494
CCGGTTAC | 0.11
GGTCCTAC | -0.306
ATGATCAA | 0.163
ATTTAATG | 0.248

Sequence | PBM E-score
ACATTGGA | 0.043
ATGTAGCC | 0.0415
AGAGCCGC | -0.241
ACGAAGCT | 0.0843
CGCATCAG | -0.0761
CCGCAACA | 0.166
CCGTTCTA | 0.00472
TGAAGGAA | -0.0399
CGCGCCAA | 0.119
ATATCACC | 0.0884
ACGGGTCG | 0.118
CTAGTGGA | -0.217
AATGCTAC | 0.204
CGCATTCA | 0.233
GTCTCTTA | -0.016
AAGCAACG | 0.0094
AACCTAGA | -0.109
GAACCGCA | -0.0253
ATGACTGA | -0.136
ATATACGA | 0.15
ATTCGTCC | 0.0913
CGCAGCGC | -0.118
AAAGTGAG | -0.0742
ACATGTCT | 0.305
ATAGCGAC | 0.106

Sequence | PBM E-score
AGAGGGCA | -0.167
GCGCCCAC | -0.22
ACGAAACT | 0.0327
GTCCGTAA | 0.141
ATCTAGTA | 0.282
CCGGAGAA | -0.259
CGTGTGAC | 0.0258
GCCATCCA | -0.202
ATCAGGGA | -0.151
AAGTTGGC | -0.123
ATGCTATG | 0.244
GCTGTTCC | -0.312
GAGCTTAA | -0.0642
AGGAGTAA | 0.0454
CCGGTACG | -0.214
CTTCCACC | -0.141
GCACTCGA | -0.0979
CCTTGGCG | -0.283
CGAATAGA | -0.159
CATAAGCG | 0.033
ACCAGTTC | -0.213
ACTTATTA | 0.155
GTATATTA | 0.29
ACTCATTC | -0.125
AGGTCTAC | -0.0603

Sequence | PBM E-score
CGCTATCC | -0.013
TCTCCAAA | 0.0714
AAAGGCTT | -0.162
GATTCTTA | 0.144
TGATAGAA | 0.0602
AATGTTGA | 0.256
AAGTGCTG | 0.107
ACTCTAAG | -0.174
CGATTGCA | 0.0235
ACTAGTCG | -0.198
CCCCTTAG | -0.353
CTGTCCTA | -0.145
AACAACCC | 0.155
GATTCGTA | 0.0776
ATTCGTGC | 0.149
AATTCTGG | -0.0201
CATCGAAG | -0.0231
ATCACTGC | -0.0263
CGCCTCCA | -0.205
CCTCCCGA | -0.357
CTACCCGC | -0.139
TCACTGGA | -0.0631
GAACGATC | -0.0263
GTCTGTAA | 0.217
GGATGGAC | -0.22

Sequence | PBM E-score
CATTCTGA | -0.213
ACAGTTCA | 0.146
CACCCTAA | -0.0851
GCGCTCAA | -0.0978
ATGGTAAG | -0.0494
GAAATTCC | -0.175
ACCTACAA | 0.186
CTCGACTC | -0.0461
GCGGACGC | -0.234
CCCATTGC | -0.128
ACAGGTAC | 0.0935
TATCAGGA | -0.0805
AACGCGCC | 0.24
AAATAGTT | 0.0796
CAAACATC | 0.0613
CTATCTAA | -0.0399
GCAGGCAA | -0.0121
AGTCCAGG | -0.223
CGATGCAC | -0.073
AACAAGAT | 0.24
CAACCGCG | 0.157
AAATCAAT | 0.22
AGGGTTAC | -0.0596
CGGCCCCG | -0.355
CTGAAAAA | -0.00046

Sequence | PBM E-score
AGAACGGG | -0.139
ACACCGCC | -0.0211
ACAACGTA | 0.246
CCTTATTC | -0.221
CGGTTCCA | -0.3
GCTGTCAC | -0.03
AGGGTTTC | -0.0942
GATCACAC | 0.164
CCCGGAGG | -0.314
CACTCTAG | -0.14
ACCCCGTC | -0.348
ACTTAGGC | -0.0936
CTGCCAAC | -0.167
GGCCCAAC | -0.173
CCGGAACA | -0.0334
ACCACATG | 0.241
GCTCTGAC | -0.0767
TAAATGAA | 0.0494
AAAGTCAA | 0.00731
ACGGCCAG | -0.149
AACCATGC | -0.0458
AGTTAAAC | 0.286
AGAATGCA | 0.0161
CGGCATGC | -0.111
GTTAGCTA | -0.0298

Sequence | PBM E-score
GTTAAGCA | 0.172
CCGGAATA | 0.0894
ATCAAATG | 0.0673
GCAGACAC | -0.0269
AGGTATAA | 0.0833
CGTCGTGC | 0.148
GCGGGGAC | -0.189
GTGGTTAA | 0.198
AATGTAAA | 0.434
ACTAGGGG | -0.345
TGCCTACA | 0.0851
CGCGCTAG | -0.0147
GAGCACGA | -0.058
ACTAATCG | 0.0216
GCCATACA | 0.0644
GATGATCA | -0.233
CGTCGGTC | -0.0542
AAGTGTCG | 0.0503
TACTTCCA | -0.0223
ATCCACAC | -0.0685
CCCCTTGA | -0.173
TAGGTTCA | -0.00058
